Laboratory results: PubChem BioAssay AID1476 (National Center for Advancing Translational Sciences (NCATS), 2009)
The whole screen tested about 200,000 compounds, of which about 4,500 (2.2%) were called active. This list was built around the results that the source calls inconclusive (neither active nor inactive); the mix of calls is not that of the screen. Calls follow the shape of the dose curve; as a rule, active = well fitted inhibition curve with a large enough effect; inconclusive = small, poorly fitted or top-dose-only effect, or effect the other way; inactive = flat fitted curve, though single readings scatter. A potency beside an inconclusive call is a rough fit, not a confirmed value.

Biological target: Cruzipain (Trypanosoma cruzi) (UniProt P25779)
Sequence of UniProt P25779 (P25779 whole entry, looked up): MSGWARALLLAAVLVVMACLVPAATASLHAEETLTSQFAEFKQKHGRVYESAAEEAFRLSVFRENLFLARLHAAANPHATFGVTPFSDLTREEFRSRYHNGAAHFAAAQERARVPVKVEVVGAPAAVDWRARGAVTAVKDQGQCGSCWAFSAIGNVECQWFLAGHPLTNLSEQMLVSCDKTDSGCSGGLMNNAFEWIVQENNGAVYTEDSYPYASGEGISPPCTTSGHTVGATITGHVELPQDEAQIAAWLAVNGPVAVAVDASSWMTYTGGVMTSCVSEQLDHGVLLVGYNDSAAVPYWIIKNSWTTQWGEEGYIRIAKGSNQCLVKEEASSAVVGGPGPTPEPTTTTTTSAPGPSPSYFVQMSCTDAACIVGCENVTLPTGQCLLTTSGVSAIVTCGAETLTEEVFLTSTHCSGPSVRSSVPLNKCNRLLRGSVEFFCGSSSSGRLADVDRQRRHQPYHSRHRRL
Assay: qHTS Assay for Promiscuous and Specific Inhibitors of Cruzain (without detergent); also: nearly all actives have a fitted effect of over 40% in size;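 as to max response, negative = inhibition: plate controls were enzyme without inhibitor for no effect and buffer without enzyme for full effect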
Conditions: purified cruzain, Z-FR-AMC fluorescence, no detergent
Summary of the method: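 Detergent-free condition (0.00005% Triton X-100) in acetate buffer pH 5.5 with DTT. 1.5 nM enzyme and compound were pre-mixed 15 min, then 2 uM Z-FR-AMC substrate added; reaction progress from fluorescence change between first and third reads (60 s).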
Potency is read from the fitted curve at half-maximal effect; tags tell the direction and shape of the fitted curve.

For `Cc1cc(NC(=O)c2oc3c(c2C)-c2[nH]ncc2CC3)ccc1Br`, which max response, negative = inhibition is on record?
The max response, negative = inhibition was inactive: -23.6%.

With `Nc1nc(NCC2CCCO2)nc(Nc2ccc(F)cc2)c1[N+](=O)[O-]` (stereo not given) as the molecule, how does the max response, negative = inhibition read?
Its max response, negative = inhibition is inactive: -12.9%.

Which Potency does the source give for `Cc1ccc2c(C(=O)CN3CCOCC3)c(C)[nH]c2c1` here?
The Potency was inconclusive: 0.501 µM [inhibitor, full curve, poor fit].

Which Potency does the source give for `CC1CCc2c(sc3nc4n(c(=O)c23)CCS4)C1` (stereo not given) here?
Its Potency is inconclusive: 39.8 µM [inhibitor, single point].

Which Potency does the source give for `Cc1cc(C(=O)N/N=C/c2cc(Br)ccc2OC(=O)c2ccc(Br)cc2)n[nH]1` here?
The Potency was inconclusive: 39.8 µM [inhibitor, single point].

For `CCCCCNC(=O)c1ccc2c(=O)[nH]c3c(C(=O)NCC4CCCO4)sc(=S)n3c2c1` (stereo not given), which Potency is on record?
The Potency was inconclusive: 25.1 µM [activator, partial curve].

With `COc1ccc(C(=O)OCC(=O)Nc2ccc(Cl)c(C(F)(F)F)c2)c(OC)c1OC` as the molecule, how does the Potency read?
The Potency was inconclusive: 39.8 µM [activator, single point].

Which max response, negative = inhibition does the source give for `CCOc1ccc(N2CC(NC(=O)c3ccc(S(=O)(=O)N4CCOCC4)cc3)CC2=O)cc1` (stereo not given) here?
The max response, negative = inhibition was inactive: 14.2%.

How did the Potency turn out when `CCCCn1c(NS(=O)(=O)c2ccccc2)c(C(=O)OCC)c2nc3ccccc3nc21` was run?
The Potency was inconclusive: 39.8 µM [activator, single point].

With `COc1ccc(-n2c3nc4ccccc4nc3c3c(=N)oc(C)nc32)cc1` as the molecule, how does the Potency read?
Its Potency is inconclusive: 25.1 µM [activator, single point].

How did the max response, negative = inhibition turn out when `CCc1ccccc1N(C)C(=O)Nc1cn(CC(C)C)c(=O)c2ccccc12` was run?
The max response, negative = inhibition was inactive: -3.38%.

For `CCOC(=O)N1CCN(C(=O)C2CC(=O)N(c3ccc(OC)cc3)C2c2ccc(OC)cc2)CC1` (stereo not given), which Potency is on record?
The Potency was inconclusive: 25.1 µM [activator, single point].

How did the Potency turn out when `O=C(O)C1CCCCC1C(=O)Nc1nc(-c2cccs2)cs1` (stereo not given) was run?
Its Potency is inconclusive: 31.6 µM [inhibitor, single point].

How did the Potency turn out when `O=C(Cn1cc(S(=O)(=O)N2CCN(c3ccccc3F)CC2)c2ccccc2c1=O)Nc1cccc(C(F)(F)F)c1` was run?
The Potency was active: 7.94 µM.

How did the max response, negative = inhibition turn out when `COC(=O)c1nnn(-c2nonc2N)c1CSc1ccccn1` was run?
Its max response, negative = inhibition is inactive: -0.787%.

With `CC[C@@]1(O)CC2CN(CCc3c([nH]c4ccccc34)[C@](C(=O)OC)(c3cc4c(cc3OC)N(C)C3[C@@](O)(C(=O)OC)C(OC(C)=O)[C@]5(CC)C=CCN6CC[C@@]43C65)C2)C1` (stereo not given in full) as the molecule, how does the max response, negative = inhibition read?
The max response, negative = inhibition was inactive: 17.4%.

Which max response, negative = inhibition does the source give for `CC(CNC(=O)c1ccc(CSc2nc3ccncc3n2Cc2cccc(F)c2)cc1)c1ccccc1` (stereo not given) here?
Its max response, negative = inhibition is inactive: 3.59%.

Which Potency does the source give for `CCOc1cccc(CC(=O)N2CCc3c([nH]c4ccccc34)C2c2ccc(C)cc2)c1OCC` (stereo not given) here?
Its Potency is inconclusive: 39.8 µM [inhibitor, single point].

Which Potency does the source give for `COc1cc(C(=O)Nc2ccc(Cl)c(-c3nc4ncccc4o3)c2)cc(OC)c1OC` here?
Its Potency is inconclusive: 39.8 µM [activator, single point].

How did the max response, negative = inhibition turn out when `COC(=O)c1c(SC)nc2ccccc2c1OCc1ccc(C)cc1C` was run?
Its max response, negative = inhibition is inactive: -29.8%.

With `Cc1ccc(C)c2[nH]c(=O)c(CN(CCN3CCCC3)C(=O)Nc3ccc(F)cc3)cc12` as the molecule, how does the Potency read?
The Potency was inconclusive: 39.8 µM [inhibitor, single point].

With `COC(=O)c1ccc(C(NC(=O)OCc2ccccc2)/C(C)=C/[C@@H](C)C(=O)NCc2cccnc2)cc1` (stereo not given in full) as the molecule, how does the Potency read?
Its Potency is inconclusive: 39.8 µM [activator, single point].

How did the Potency turn out when `CC(C)c1ccc(S(=O)(=O)c2cn(Cc3ccc(F)cc3)c3cc4c(cc3c2=O)OCO4)cc1` was run?
The Potency was inconclusive: 39.8 µM [inhibitor, single point].

Which Potency does the source give for `Cc1nn(CCCC(=O)Nc2sc3c(c2C#N)CCC3)c(C)c1[N+](=O)[O-]` here?
The Potency was inconclusive: 31.6 µM [activator, single point].

How did the max response, negative = inhibition turn out when `Cc1ccn2c(=O)c(C(=O)NCCc3ccc(S(N)(=O)=O)cc3)c(O)nc2c1` was run?
Its max response, negative = inhibition is inactive: -9.31%.

For `O=C(Nc1ccc2oc(-c3ccncc3)nc2c1)c1c(F)c(F)c(F)c(F)c1F`, which Potency is on record?
Its Potency is active: 10 µM.

Which Potency does the source give for `O=C(N/N=C1\CCCc2c1[nH]c1ccc(Cl)cc21)c1ccncc1` here?
The Potency was inconclusive: 25.1 µM [inhibitor, single point].

For `CCN(CC)S(=O)(=O)c1ccc(N2CCOCC2)c(NC(=O)c2cccc3ccccc23)c1`, which Potency is on record?
Its Potency is inconclusive: 39.8 µM [activator, single point].

Which Potency does the source give for `COc1ccccc1CNC(=O)C1CCN(S(=O)(=O)c2c(C)noc2/C=C/c2cccs2)CC1` here?
The Potency was inconclusive: 39.8 µM [inhibitor, single point].

With `COc1ccc(CCNc2ncnc3c2c(-c2ccccc2)cn3-c2cccc(Cl)c2)cc1OC` as the molecule, how does the Potency read?
Its Potency is inconclusive: 20 µM [activator, single point].

`O=C(ON=C1CCN(S(=O)(=O)c2ccccc2)CC1)c1ccc(Cl)cc1` was tested. Which max response, negative = inhibition did it give?
The max response, negative = inhibition was inactive: 20.4%.

With `CCc1ccc(NC(=O)CC2C(=O)N(c3ccc(OC)cc3)C(=O)N2Cc2ccc(OC)cc2)cc1` (stereo not given) as the molecule, how does the max response, negative = inhibition read?
Its max response, negative = inhibition is inactive: 7.81%.

Which Potency does the source give for `O=C(c1cnccn1)N1CCC2(CCCN(c3ccc(-c4ccccc4)cc3)C2)CC1` here?
Its Potency is inconclusive: 39.8 µM [activator, single point].

For `Cc1ccc(CNC(=O)Cn2c(=O)cc(-c3ccccc3)c3c(C)nn(C)c32)cc1`, which Potency is on record?
The Potency was inconclusive: 25.1 µM [activator, single point].

How did the Potency turn out when `COc1ccccc1N1CCN(S(=O)(=O)CCNC(=O)COc2ccc(F)cc2)CC1` was run?
Its Potency is inconclusive: 31.6 µM [activator, single point].

`CN(C)c1ccc(C(CNS(=O)(=O)c2ccc(F)c(F)c2)c2c[nH]c3ccccc23)cc1` (stereo not given) was tested. Which Potency did it give?
The Potency was inconclusive: 20 µM [inhibitor, single point].

How did the max response, negative = inhibition turn out when `Cc1nn(CC(=O)N2CCN(c3ccccc3)CC2)c(=O)c2cc3cc(F)ccc3n12` was run?
Its max response, negative = inhibition is inactive: 12.2%.

Which max response, negative = inhibition does the source give for `CC1(C)OC(=O)C(=CNCC(O)c2ccccc2)C(=O)O1` (stereo not given) here?
Its max response, negative = inhibition is inactive: -2.23%.

With `Cc1ccc(C)c(N2CCN(C(=O)c3ccc(CS(=O)(=O)c4ccccc4C)o3)CC2)c1` as the molecule, how does the Potency read?
The Potency was inconclusive: 20 µM [activator, single point].

With `CC(C)(C)c1ccc(OCC(=O)NCc2ccco2)c(Br)c1` as the molecule, how does the Potency read?
Its Potency is inconclusive: 39.8 µM [activator, single point].
